# Experimental data taken from the supplement of paper PMC12217912.
# This is one part of the list. The full chains were built here from the parent and the listed change. Values near 0.05 are background.
# B1: TEV protease; numbered along this chain (parent)
# chain: MGESLFKGPRDYNPISSSICHLTNESDGHTTSLYGIGFGPFIITNKHLFRRNNGTLVVQSLHGVFKVKDTTTLQQHLVDGRDMIIIRMPKDFPPFPQKLKFREPQREERICLVTTNFQTKSMSSMVSDTSCTFPSGDGIFWKHWIQTKDGQCGSPLVSTRDGFIVGIHSASNFTNTNNYFTSVPKNFMELLTNQEAQQWVSGWRLNADSVLWGGHKVFMVKPEEPFQPVKEATQL
# Variants of: B1
# Experiment: raw area under fraction-flipped curve 0-4 h after induction (AUC4h, not background-subtracted), DNA-recorder readout of cleavage of the substrate (dimensionless); higher = more cleavage of the substrate by the protease variant
# Conditions: temperature: 34 °C; time window: 0-4 h after rhamnose induction
# Experimental: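 In vivo DNA recorder in E. coli TOP10(DE3) ΔrhaA at 34 °C. Each TEVp single-site mutant (parent TEVp 0) is paired with a single-site variant of the 7-mer TEVs (canonical ENLYFQ|S). The substrate sits between flexible linkers in a Bxb1-sfGFP-TEVs-SsrA fusion, so cleavage stabilises Bxb1 and speeds flipping of a recombination array, read by NGS. The value is the raw area under the fraction-flipped curve over 0-4 h after rhamnose induction (AUC4h), with ≥20 reads per time point. It is not background-subtracted; inactive controls average about 0.047.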
# 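Further: Bxb1 expression induced with 0.2% (w/v) L-rhamnose at OD600 near 0.5, cultures sampled hourly, flipped fraction per protease–substrate barcode pair counted by paired-end Illumina sequencing.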
Variant,area with substrate CNLYFQS,area with substrate FNLYFQS,area with substrate HNLYFQS,area with substrate KNLYFQS,area with substrate MNLYFQS,area with substrate QNLYFQS,area with substrate RNLYFQS,area with substrate SNLYFQS,area with substrate TNLYFQS,area with substrate VNLYFQS
V67H,0.0992,0.0557,0.0638,0.0675,0.055,0.0696,0.0493,0.0527,0.0572,0.0771
K66T,0.0636,0.0864,0.0539,–,0.0562,–,0.0721,0.0634,–,–
L61V,0.0647,–,0.0631,0.0544,0.0463,–,–,–,–,–
P93F,0.0549,0.0632,0.0634,–,0.0336,–,–,–,0.0484,–
G28V,0.047,0.054,0.0632,0.051,0.0612,–,–,0.0129,0.0686,–
S171T,0.0761,0.0824,0.0858,0.126,0.041,–,–,–,–,–
M188I,0.0642,–,0.0662,0.0763,–,–,–,0.0708,0.0678,–
L33C,0.0477,0.0619,0.0673,0.0796,–,–,–,–,0.0598,–
F173R,0.0501,–,0.0551,–,–,–,0.0661,–,–,–
N116R,0.102,0.0941,–,0.0534,–,–,–,–,0.0567,–
S121C,0.0664,0.0612,–,–,0.0617,–,–,–,0.0719,0.0661
R51G,0.0647,–,0.0751,–,–,–,0.0517,–,0.052,–
G213N,0.0833,0.0496,–,–,0.0402,–,–,–,0.0603,–
K7P,0.0562,–,0.0656,–,0.0589,0.0659,–,0.0701,0.0756,0.0393
K7E,0.0529,–,–,–,–,–,0.0713,–,0.0763,–
N172Y,0.0618,–,–,–,0.0472,–,–,–,0.0656,–
F117D,0.0714,0.0727,0.055,–,–,–,–,0.0733,–,0.0743
T71H,0.0775,–,0.0602,0.055,0.0687,0.0627,–,0.0557,0.0467,–
Y34W,0.0723,–,–,–,–,0.049,–,–,0.0749,0.0632

# Same assay, conditions: temperature: 34 °C; time window: 0-4 h after rhamnose induction
Variant,area with substrate WNLYFQS,area with substrate GNLYFQS,area with substrate INLYFQS,area with substrate LNLYFQS,area with substrate PNLYFQS,area with substrate NNLYFQS,area with substrate YNLYFQS
V67H,0.0519,–,–,–,–,–,–
K66T,0.0591,0.0737,0.0663,0.0709,0.0631,–,–
L61V,0.093,0.061,0.0755,0.0576,0.0688,–,–
P93F,–,0.0554,0.0559,–,–,0.0587,0.0561
G28V,0.0542,0.057,0.0592,–,0.0573,0.0731,–
S171T,–,–,0.0692,0.0701,–,0.0666,0.0447
M188I,0.065,–,–,–,–,–,0.0648
L33C,0.0552,–,0.0764,–,0.0835,0.0697,0.0708
F173R,0.0649,–,–,0.0737,–,–,0.0435
N116R,0.0773,0.075,0.0447,–,–,–,–
S121C,0.0352,0.0512,0.0853,–,0.0673,0.0671,0.0711
R51G,–,–,–,–,–,0.0611,0.0564
G213N,0.0507,–,–,0.047,0.0804,–,–
K7P,–,0.0601,0.0651,–,–,0.075,0.0648
K7E,0.0629,–,–,–,–,–,–
N172Y,0.0744,–,–,–,–,–,0.0663
F117D,0.0576,0.0801,–,0.0801,0.0625,–,0.0706
T71H,0.0492,0.0498,–,–,0.0643,–,–
Y34W,0.0284,0.0571,–,–,–,–,–
